Measured values published in PMC4336329 (PLoS ONE, 2015).
In all, about 310,000 compounds went through this assay and about 14,000 (4.5%) showed an effect of 50% or more. The effect is printed as a negative number. The list shows a part of the results.

Biological target: human ether-à-go-go-related gene (hERG) potassium channel (human, UniProt Q12809)
Test: primary screen, population patch clamp on CHO cells stably expressing hERG
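Note: peak tail current of the secondary pulse compared with the same well before compound.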

Chain of human ether-à-go-go-related gene (hERG) potassium channel (Q12809 whole entry, looked up): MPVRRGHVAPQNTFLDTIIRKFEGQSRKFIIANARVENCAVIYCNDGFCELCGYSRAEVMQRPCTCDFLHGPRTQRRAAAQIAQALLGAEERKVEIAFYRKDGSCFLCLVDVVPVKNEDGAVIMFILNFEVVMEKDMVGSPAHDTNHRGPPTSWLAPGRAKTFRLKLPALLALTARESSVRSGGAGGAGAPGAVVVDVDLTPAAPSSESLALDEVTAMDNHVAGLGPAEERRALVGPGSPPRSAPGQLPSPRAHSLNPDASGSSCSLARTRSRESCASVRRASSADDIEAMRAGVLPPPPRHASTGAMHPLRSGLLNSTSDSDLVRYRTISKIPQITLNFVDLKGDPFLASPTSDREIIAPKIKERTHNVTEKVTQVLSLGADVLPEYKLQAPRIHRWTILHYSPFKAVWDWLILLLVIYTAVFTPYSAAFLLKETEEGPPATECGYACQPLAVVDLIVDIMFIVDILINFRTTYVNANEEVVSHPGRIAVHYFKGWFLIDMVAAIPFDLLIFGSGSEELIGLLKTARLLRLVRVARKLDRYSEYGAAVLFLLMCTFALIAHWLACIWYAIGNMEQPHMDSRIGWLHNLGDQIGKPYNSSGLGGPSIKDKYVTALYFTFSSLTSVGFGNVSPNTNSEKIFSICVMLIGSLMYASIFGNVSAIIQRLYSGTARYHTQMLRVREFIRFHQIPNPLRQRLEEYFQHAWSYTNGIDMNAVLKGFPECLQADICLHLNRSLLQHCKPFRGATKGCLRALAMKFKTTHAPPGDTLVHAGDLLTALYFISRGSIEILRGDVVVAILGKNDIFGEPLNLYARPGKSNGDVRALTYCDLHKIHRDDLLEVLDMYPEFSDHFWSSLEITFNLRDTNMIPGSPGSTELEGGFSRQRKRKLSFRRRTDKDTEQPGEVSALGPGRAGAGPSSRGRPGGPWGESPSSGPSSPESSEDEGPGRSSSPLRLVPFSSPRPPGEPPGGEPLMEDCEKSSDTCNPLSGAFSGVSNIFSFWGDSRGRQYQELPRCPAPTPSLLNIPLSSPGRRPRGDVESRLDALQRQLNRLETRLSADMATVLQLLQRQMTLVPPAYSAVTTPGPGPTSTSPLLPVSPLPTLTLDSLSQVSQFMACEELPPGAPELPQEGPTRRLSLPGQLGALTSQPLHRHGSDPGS

Row | Compound | hERG current change (%, negative = inhibition) at 10uM [%]
1 | Cc1c(NC(=O)C2C3C=CC(C3)C2C(=O)O)c(=O)n(-c2ccccc2)n1C (centres unmarked) | 14.2
2 | COCCn1c(=O)[nH]c2cc(C(=O)OC)ccc2c1=O | 7.96
3 | Cc1cc2c(cc1C)C(c1cccc([N+](=O)[O-])c1)CC(=O)N2 (centres unmarked) | 5.01
4 | CC1(C)CC(O)C(C)(C)N1O (centres unmarked) | 3.9
5 | CC1CCN(C(=O)COC(=O)c2cccc(S(=O)(=O)N(C)c3ccccc3)c2)CC1 | -49.8
6 | Cc1ccc(NC(=O)CN2C(=O)c3ccccc3C2=O)c(C)c1 | -3.51
7 | Cc1ccccc1Cn1nnc(-c2ccc(F)cc2)n1 | 15
8 | Cc1n[nH]c(C)c1S(=O)(=O)N1CCCC(C(=O)NCc2ccccc2Cl)C1 (centres unmarked) | -4.85
9 | CC(C)C(C(=O)NC1CCCC1)N(CC1CCCO1)C(=O)CNS(=O)(=O)c1ccc(F)cc1 (centres unmarked) | -6.96
10 | O=C1C(=O)N(CCN2CCOCC2)C(c2ccc(Cl)cc2)/C1=C(/O)c1ccc(S(=O)(=O)N2CCOCC2)cc1 (centres unmarked) | 23
11 | CC1(C)Cc2c(c(N3CCCC3)nc3sc4c(N5CCN(CCO)CC5)ncnc4c23)CO1 | -11.1
12 | Cc1c(C(=O)Nc2c(N)nc(SCC(=O)NCC3CCCO3)[nH]c2=O)cccc1[N+](=O)[O-] (centres unmarked) | 15.9
13 | CCNc1c(NS(=O)(=O)c2ccc([N+](=O)[O-])cc2)c(=O)oc2ccccc12 | 20.5
14 | CCOc1cccc(-c2nnc3sc(C4CCCCC4)nn23)c1 | -36.3
15 | Cc1cccc(NC(=S)N(CCN(C)C)C(C)c2ccccn2)c1 (centres unmarked) | -7.64
16 | CCCN(N=Nc1cccc([N+](=O)[O-])c1)c1cccc([N+](=O)[O-])c1 | 3.14
17 | CCOc1ncccc1C(=O)OCC(=O)NCCc1ccc(OC)cc1 | -8.44
18 | CS(=O)(=O)N(CCc1ccccc1)CC(=O)NCc1cccnc1 | -5.61
19 | COc1cccc(Oc2ccc3nnc(C(F)(F)F)n3n2)c1 | 5.03
20 | Cc1ccc(S(=O)(=O)N2CCCC2)s1 | -20.7
21 | CC(=O)Cc1nsc(NC(=O)C2Cc3ccccc3C(=O)O2)n1 (centres unmarked) | 21.7
22 | O=C(NCc1ccccc1Cl)C1CCN(c2ncnc3c2nc2n3CCCCC2)CC1 | -30.9

Row | Compound | hERG current change (%, negative = inhibition) at 10uM [%]
23 | CN(Cc1nc(-c2ccccc2)no1)C1CCOCC1 | 5.53
24 | Cn1c(CCNC(=O)c2ccccc2)nc2cc(NC(=O)c3ccco3)ccc21 | -15.2
25 | CC(=O)Nc1ccc(CN2CCCCCCC2)cc1 | -4.11
26 | O=C(/C=C/c1ccccc1[N+](=O)[O-])NNC(=O)c1ccncc1 | -7.86
27 | Nc1ncccc1C(=O)OCC(=O)NC1CCCCCC1 | 1.63
28 | Cc1noc(C)c1COc1cccc(C(=O)NCCc2c[nH]c3ccccc23)c1 | -6.56
29 | Cc1ccc(/C=C2/SC(=S)N(CCC(=O)N3CCN(C)CC3)C2=O)cc1 | 8.77
30 | Cc1ccc(C)c(S(=O)(=O)N2CCN(C(=O)CSC(=S)N3CCCC3)CC2)c1 | -2.49
31 | CCN(CC)S(=O)(=O)c1ccc(OC)c(NC(=O)Cc2cccs2)c1 | -36.6
32 | O=C(Nc1ccccc1Br)C(=O)N1CCCC1 | 3.44
33 | COc1cc(/C=C/C(=O)O)cc(S(=O)(=O)Nc2ccccc2C(=O)NCCc2ccccc2)c1OC | 21.7
34 | O=C(Nc1ccc2c(c1)C(=O)OC2)Nc1cccc2ccccc12 | 13.1
35 | Cc1onc(-c2c(F)cccc2Cl)c1C(=O)NNC(=O)C1CCN(Cc2ccccc2)CC1 | -3.79
36 | CCn1c(SCC(=O)Nc2nccs2)nnc1-c1cccnc1 | 6.01
37 | Cc1ccccc1Cn1nnc(C(=O)Nc2ccc3c(c2)OCCO3)c1N | 5.04
38 | C=CCOC(=O)C1=C(C)NC(=O)NC1c1ccc(Cl)cc1 (centres unmarked) | -7.32
39 | O=C(COc1ccccc1Cl)Nc1ccc2oc(=O)ccc2c1 | 16.8
40 | Cc1c(OCC(=O)NCC(O)c2ccccc2)ccc2c3c(c(=O)oc12)CCCC3 (centres unmarked) | -0.779
41 | Cc1noc(N)c1C(=O)Nc1ccc(F)c(Cl)c1 | -2.34
42 | O=C1CN(C(=O)COC(=O)c2oc3ccccc3c2COc2ccccc2)c2ccccc2N1 | -4.41
43 | COc1ccc(CN2CCn3ncc(C(=O)Nc4ccc(Cl)cc4Cl)c3C2=O)cc1 | -3.62
44 | O=C(Oc1cccc([N+](=O)[O-])c1)c1cc(-c2ccccc2)nc2ccccc12 | 12
